Results: US20240295544A1 (priority 2020, published 2024)
Structures can show the parent of a compound that is named as a salt. Where a SMILES comes first, the peptide text is derived from it. The star is where a group is joined. Cbz = O=C(OCc1ccccc1)*; CHN2 = [N-]=[N+]=C*; tBu = CC(C)(C)*

Tested on: SARS-CoV-2
Assay type: cell-based

## CO/C1=C\C(C)=C\[C@@H](C)[C@@H](O)[C@@H](C)C/C(C)=C/C=C/[C@H](OC)[C@@H]([C@@H](C)[C@@H](O)[C@H](C)[C@@]2(O)C[C@@H](O)[C@H](C)[C@@H](C(C)C)O2)OC1=O [bafilomycin]
  viral RNA detection compared to vehicle: 1%

## CCCNC(=O)[C@H]1O[C@@H]1C(=O)N[C@H](C(=O)N1CCC[C@H]1C(=O)O)[C@@H](C)CC [CA-074]
  effect on detection of viral transcripts / viral infection in infected CMs: did not

## Cc1cccc(/C=N/Nc2cc(N3CCOCC3)nc(OCCc3ccccn3)n2)c1 [apilimod]
  viral RNA detection compared to vehicle: ~0.1%

## CN(C)C(=O)COC(=O)Cc1ccc(OC(=O)c2ccc(NC(=N)N)cc2)cc1 [camostat mesylate]
  effect on detection of viral transcripts / viral infection in infected CMs: did not significantly inhibit viral infection

## CC(C)(C)Oc1ccc(C[C@H](NC(=O)[C@H](Cc2ccccc2)NC(=O)OCc2ccccc2)C(=O)C=[N+]=[N-])cc1 [Z-Phe-Tyr(tBu)-diazomethylketone] (Cbz-Phe-Tyr(tBu)-CHN2)
  viral RNA detection compared to vehicle: about 10%
